Data published in PubChem BioAssay AID602233 (National Center for Advancing Translational Sciences (NCATS), 2012).
The campaign covered roughly 380,000 compounds. About 170 (0.045%) were called active. This list was built around the results that the source calls inconclusive (neither active nor inactive); the mix of calls is not that of the screen. The call rests on the fitted dose curve; in most records, active means well fitted inhibition curve with a large enough effect; inconclusive means small, poorly fitted or top-dose-only effect; inactive means no such curve, though single readings can be large or run the other way. Potencies of inconclusive entries are left out as doubtful fits. Where a structure was tested more than once in an assay, its records may differ in their call.

The molecules below were run against Phosphoglycerate kinase, glycosomal (Trypanosoma brucei brucei) (UniProt P07378) (assay: qHTS Assay to Find Inhibitors of Phosphoglycerate Kinase). Conditions: PGK/GAPDH coupled, Kinase-Glo luminescence, 60 min; series mostly up to 57.5 µM.
Summary of the method: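 Luminescent ATP detection (Kinase-Glo Plus) follows a 60-minute room-temperature incubation, with wells lacking PGK as controls. Buffer: 100 mM TEA (pH 7.6), 5 mM MgCl2, 0.01% Tween-20. Coupling enzyme GAPDH (100 nM final) supplies unstable 1,3-BPG in-well.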
Further: nearly all actives have a fitted effect of over 60% in size.
Potency means the concentration at half of the fitted maximal effect; tags describe the fitted curve by direction and shape.

Structure (SMILES)	Potency
NC(=S)N=Nc1c(O)cc(O)c2[nH]c(=O)ccc12	inconclusive [inhibitor, single point]
Cc1cc(C)c(Nc2cc(S(=O)(=O)O)c(N)c3c2C(=O)c2ccccc2C3=O)c(C)c1	inconclusive [inhibitor, partial curve, poor fit]
CSc1ccc(NC(=O)Nc2ccc(C(=O)NCC(=O)O)cc2)cc1	inconclusive [inhibitor, partial curve, poor fit]
Cc1ccc(OCC(=O)Nc2c(Cl)ccc3nsnc23)cc1C	inactive
CCOc1ccc(-c2ccc(SC)nn2)cc1	inconclusive [inhibitor, partial curve, poor fit]
C#CCOCCOCCOCCNc1nc(N2CCN(C(=O)CCCCCCCCCCNC(=O)Cn3cc(C[C@@H](C)O)nn3)CC2)nc(N2CCN(C(=O)CCCCCCCCCCNC(=O)[C@@H](CCSC)n3cc(CCO)nn3)CC2)n1	inactive
Cc1cccc(-c2noc(-c3ccccc3OCC(=O)Nc3ccccc3[N+](=O)[O-])n2)c1	inactive
Cc1nc(-c2ccc(C(=O)N3CCCC3)cc2)cs1	inconclusive [inhibitor, partial curve, poor fit]
COC(=O)c1cccc(NC(=O)c2cccc(OC)c2)c1	inconclusive [inhibitor, partial curve, poor fit]
Cc1ccnc(NC(=O)c2ccc3c(c2)OCO3)c1	inconclusive [inhibitor, partial curve]
CC(=O)OCC1=C(C(=O)O)N2C(=O)C(NC(=O)c3ccc(COc4ccc(Cl)cc4)o3)C2SC1 (configuration not stated)	inconclusive [inhibitor, partial curve, poor fit]
O=C(O)CN1C(=O)/C(=C/c2ccc(SCc3ccccc3)o2)SC1=S	inconclusive [inhibitor, single point]
c1ccc(-c2n[nH]c(-c3ccccn3)n2)nc1	inconclusive [inhibitor, single point]
Cc1ccc(CNCc2cccnc2)cc1	inactive
Cc1ccnc(NS(=O)(=O)c2ccc(NC(=O)Cc3cccs3)cc2)n1	inconclusive [inhibitor, single point]
O=C(COc1ccccc1Cl)Nc1cc(NC(=O)COc2ccccc2Cl)cc(C(=O)O)c1	inconclusive [inhibitor, single point]
O=C(Nc1ccc(C(=O)N2CCOCC2)cc1)c1cccs1	inconclusive [inhibitor, partial curve, poor fit]
CCOP(=O)(OCC)c1nc(-c2cccc([N+](=O)[O-])c2)oc1N1CCCCC1	inconclusive [inhibitor, partial curve, poor fit]
CC(=O)N1CCC(N(CCN2CCOCC2)C(=S)Nc2ccccc2C)CC1	inconclusive [inhibitor, partial curve, poor fit]
O=[N+]([O-])c1ccc(C=NNc2ccccc2)cc1	inactive
O=C(O)c1cc(C(=O)O)cc(-c2ccc(/C=c3/sc4nc5ccccc5n4c3=O)o2)c1	inconclusive [inhibitor, partial curve, poor fit]
O=C(Cn1cc(SCc2cccc(Cl)c2)c2ccccc21)N1CCCCC1	inactive
CC(Cc1c[nH]c2ccccc12)C(=O)O (configuration not stated)	inconclusive [inhibitor, full curve, poor fit]

Structure (SMILES)	Potency
Cc1c2cc(O)c(=O)cc-2oc2cc(O)c(O)cc12	inconclusive [inhibitor, full curve, poor fit]
COc1ccc(NS(=O)(=O)c2cc3c(cc2C)NC(=O)CO3)c(OC)c1	inactive
O=C(CCS(=O)(=O)c1ccc(Br)cc1)Nc1ccc(Cl)c(C(F)(F)F)c1	inconclusive [inhibitor, single point]
COc1ccccc1CCNC(=O)C(=O)NCC(c1cccs1)S(=O)(=O)c1ccccc1 (configuration not stated)	inconclusive [inhibitor, partial curve, poor fit]
O=C1NC(=O)/C(=C/c2ccc(-c3cccc([N+](=O)[O-])c3)o2)S1	inconclusive [inhibitor, partial curve, poor fit]
CCc1cccc(NC(=O)C2CCC(CNS(=O)(=O)c3csc(C(N)=O)c3)CC2)c1 (configuration not stated)	inactive
N#CNc1nc(O)cc(=O)[nH]1	active: 28.2 µM
CCOc1ccc(C(C)=O)cc1N1C(=O)C2C3C=CC(C3)C2C1=O (configuration not stated)	inconclusive [inhibitor, partial curve, poor fit]
O=C1C2C3C=CC(C3)C2C(=O)N1c1ncn[nH]1 (configuration not stated)	inconclusive [inhibitor, single point]
Cc1cccc(C(=O)NC(=O)Nc2ccc(-c3cc(C(F)(F)F)nn3-c3ccccc3)cc2)c1	inactive
O=C(O)c1ccc(-n2cccc2/C=C2/NC(=O)N(c3ccccc3)C2=O)cc1	inconclusive [inhibitor, partial curve, poor fit]
Cc1nc2c(C(=O)NCc3ccc(F)cc3)c[nH]n2c(=O)c1Cl	inconclusive [inhibitor, single point]
CCOC(=O)C1=C(C)N=c2s/c(=C/c3ccc(OCC(=O)O)c(OC)c3)c(=O)n2C1c1ccc(Cl)cc1 (configuration not stated)	active: 14.1 µM
Cc1ccccc1NC(=S)Nc1ccccc1	inconclusive [inhibitor, single point]
Cc1ccccc1NS(=O)(=O)c1ccc2[nH]cc(C(=O)NC(C)c3ccccc3)c(=O)c2c1 (configuration not stated)	inconclusive [inhibitor, partial curve, poor fit]
Cc1ccc(OCC(=O)N2CC3(C)CC2CC(C)(C)C3)cc1 (configuration not stated)	inactive
c1ccc(Cn2c(-c3ccco3)nc3nc4ccccc4nc32)cc1	inactive
O=C(O)CN1C(=O)/C(=C2\C(=O)N(Cc3ccccc3Cl)c3ccccc32)SC1=S	inconclusive [inhibitor, partial curve, poor fit]
c1coc(CSSCc2ccco2)c1	inconclusive [inhibitor, partial curve]
Cc1ccc(-c2nn(-c3ccccc3)cc2C2CC(c3cccs3)=NN2C(=O)CCCC(=O)O)cc1 (configuration not stated)	inconclusive [inhibitor, single point]
COc1cccc2c1Oc1ncccc1N(C(=O)Nc1cccc(Cl)c1)C2	inconclusive [inhibitor, partial curve]
Cc1nc2nc(-c3ccccc3)cn2nc1C	inconclusive [inhibitor, single point]
CCN1C(=O)C(=Cc2cccc(OC)c2Oc2ccc([N+](=O)[O-])cc2[N+](=O)[O-])SC1=S	inconclusive [inhibitor, full curve, poor fit]

Structure (SMILES)	Potency
COc1ccc(CNC(=O)c2cc(-c3ccc(C)c(C)c3)n[nH]2)cc1	inactive
CN(C)S(=O)(=O)c1cccc(NC(=S)NC(=O)c2ccco2)c1	inactive
CCN1c2cc(C)ccc2-n2cccc2C12CCN(C(=O)Nc1cc(OC)c(OC)c(OC)c1)CC2	inactive
Oc1ccc(C=NNC(=S)Nc2ccccc2)nc1	inconclusive [inhibitor, partial curve, poor fit]
COc1ccc(OCCC(=O)OCC(=O)NCc2ccco2)cc1	inconclusive [inhibitor, partial curve, poor fit]
COc1cc(SC)ccc1C(=O)Nc1nc2ccccc2[nH]1	inconclusive [inhibitor, partial curve]
O=C(O)CCn1cnc2onc(-c3ccccc3Cl)c2c1=O	inconclusive [inhibitor, partial curve, poor fit]
COC(=O)c1sccc1NC(=O)Nc1ccc(C)cc1	inconclusive [inhibitor, single point]
NC(=O)c1cc([N+](=O)[O-])ccc1NCCN1C(=O)c2ccc(C(=O)O)cc2C1=O	inactive
O=C(O)c1cc(-c2ccco2)nc2ccc(Br)cc12	active: 28.2 µM
CCOc1ccc(-c2ccc(SCC)nn2)cc1	inconclusive [inhibitor, single point]
COc1cccc(C(=O)O/N=C(\N)c2ccccn2)c1	active: 14.1 µM
O=C(CCN1C(=O)/C(=C/c2ccco2)SC1=S)Nc1ccc(O)cc1C(=O)O	inconclusive [inhibitor, single point]
COC(=O)C1(Cc2ccc(O)cc2)OC(=O)C(O)=C1c1ccc(O)cc1 (configuration not stated)	inconclusive [inhibitor, single point]
O=C(COc1ccc(Cl)cc1Cl)NN=C1CCCCC1	inactive
COc1ccc(-n2c(O)c(/C=N/NS(=O)(=O)c3ccc(C)cc3)c3ccccc3c2=O)cc1OC	inactive
O=C(Nc1nc2c(s1)CCCC2)c1ccccc1F	inconclusive [inhibitor, partial curve, poor fit]
COc1ccc(-c2nc3ccccc3s2)cc1	inconclusive [inhibitor, single point]
O=C(N/N=C/c1ccc(OC(=O)c2ccccc2Cl)cc1)c1cc(O)cc(O)c1	inconclusive [inhibitor, partial curve, poor fit]
COc1ccc(Nc2c3c(nc4ccc(NC(=O)c5cc(Cl)ccc5OC)cc24)CCCC3)cc1OC	inactive
O=C(Nc1nc(-c2ccco2)c(-c2ccco2)s1)C1CC(=O)N(c2ccc3c(c2)OCCO3)C1 (configuration not stated)	inactive
